Measurements: the supplement of paper PMC3334620
Whole data set: some 33,000 sequences, median “E-score (-0.5 to 0.5)” near -0.012, cut for the highest 2% near 0.29. Some of the results follow.

target: T1, Ybr033w (UniProt P38073); assay: PBM E-score (8-mer binding enrichment) (E-score (-0.5 to 0.5)); higher = stronger / more preferred TF binding; most listed sequences are background and not binding sites; conditions: protein concentration: 200 nM; construct: GST-full length
T1 sequence: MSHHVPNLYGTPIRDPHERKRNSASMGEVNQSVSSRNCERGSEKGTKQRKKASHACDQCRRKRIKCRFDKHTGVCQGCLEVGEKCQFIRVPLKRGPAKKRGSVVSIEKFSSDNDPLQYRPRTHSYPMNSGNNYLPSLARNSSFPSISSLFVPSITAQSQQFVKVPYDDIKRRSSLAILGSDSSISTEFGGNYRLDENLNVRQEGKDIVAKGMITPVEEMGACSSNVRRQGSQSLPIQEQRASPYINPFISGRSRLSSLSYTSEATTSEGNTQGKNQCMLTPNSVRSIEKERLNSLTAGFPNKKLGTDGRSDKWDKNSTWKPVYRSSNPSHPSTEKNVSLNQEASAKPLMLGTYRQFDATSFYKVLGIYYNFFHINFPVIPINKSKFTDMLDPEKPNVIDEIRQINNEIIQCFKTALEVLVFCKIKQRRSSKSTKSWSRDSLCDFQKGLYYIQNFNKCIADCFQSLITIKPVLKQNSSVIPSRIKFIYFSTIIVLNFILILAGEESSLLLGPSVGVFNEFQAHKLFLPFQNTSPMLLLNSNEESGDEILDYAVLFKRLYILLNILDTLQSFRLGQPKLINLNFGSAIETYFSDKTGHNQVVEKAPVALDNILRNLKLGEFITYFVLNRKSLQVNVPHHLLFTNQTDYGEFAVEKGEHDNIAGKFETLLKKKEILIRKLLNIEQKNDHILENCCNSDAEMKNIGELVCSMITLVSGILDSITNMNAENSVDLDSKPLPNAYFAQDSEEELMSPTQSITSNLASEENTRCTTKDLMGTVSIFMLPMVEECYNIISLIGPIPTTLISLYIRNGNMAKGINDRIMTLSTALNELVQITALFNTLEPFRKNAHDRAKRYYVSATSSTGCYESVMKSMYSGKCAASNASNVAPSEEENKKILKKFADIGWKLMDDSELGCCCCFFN
How it was run: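 E-scores (a modified Wilcoxon-Mann-Whitney statistic) were assigned by the Universal PBM Analysis Suite to every ungapped eight-base word pooled with its reverse complement. The input came from universal all-10-mer Agilent arrays made double-stranded by primer extension and probed with GST-tagged yeast transcription factors at about 100-200 nM. Fluorescent anti-GST detected bound protein, and masliner normalised the scans.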

| Sequence | PBM E-score |
| --- | --- |
| ATTCAATG | 0.089 |
| AAATGGCT | 0.0549 |
| ACTACTAC | 0.153 |
| ATCGTCTC | -0.0845 |
| TGCATGCA | -0.0445 |
| AGCTCGTA | 0.0191 |
| GAATCCTC | -0.0795 |
| CCCAGCTC | -0.216 |
| CAGAGTCC | -0.089 |
| CGTGGCAC | -0.228 |
| ACGTACAA | 0.107 |
| CTTTAGGC | -0.0153 |
| CCCTAGCC | -0.248 |
| GCCCGGCA | -0.261 |
| ATGGGAGG | -0.105 |
| ATGACGCA | -0.0224 |
| CTCAACGA | -0.00223 |
| GGGCTGAC | -0.224 |
| AAGTAGAG | -0.226 |
| ACGGGTAC | -0.167 |
| CTATTACC | -0.102 |
| CCAGTGGC | -0.243 |
| TAAAATGA | 0.217 |
| AAGGTCGG | -0.0863 |
| CCCACTAA | -0.0112 |

| Sequence | PBM E-score |
| --- | --- |
| ACACATCT | 0.0852 |
| AGCTTCTA | 0.0252 |
| AATAAGTG | 0.162 |
| TACCAGAA | 0.231 |
| AGAAATGA | 0.172 |
| ATGACCCC | -0.125 |
| ACCGACTC | -0.114 |
| CGTTCGAC | -0.0801 |
| ATTGCGCC | -0.123 |
| AGCGGCTA | -0.186 |
| TCAATGAA | 0.139 |
| AGACATAG | 0.00974 |
| CGAACATA | 0.2 |
| CTATGTGA | -0.0558 |
| AGGTTAGC | -0.0766 |
| AGAACACA | 0.0194 |
| TAGACCAA | 0.146 |
| GCACCTAC | -0.232 |
| GGATCCCA | -0.085 |
| CAGTCAAG | -0.0633 |
| CAGTGATG | 0.0429 |
| AAAAAATC | 0.248 |
| ACTTGGAC | 0.127 |
| CCGCTGAG | -0.203 |
| GGGGGGAC | -0.429 |

| Sequence | PBM E-score |
| --- | --- |
| ACCTGCCG | -0.15 |
| ACCTTCTC | -0.0404 |
| GTACTTGA | 0.115 |
| CCTCGTAG | 0.0213 |
| CGCGGCAA | -0.104 |
| ATTTCATA | 0.076 |
| ACTACATG | 0.135 |
| GTCAGGCA | -0.096 |
| CGGATACG | -0.111 |
| ATCTACGG | 0.0177 |
| ACAAAGAG | -0.0759 |
| CAGTCGGC | -0.229 |
| AGCTCACT | -0.194 |
| CCAGCCAA | -0.0553 |
| CGTTGCTA | -0.00166 |
| AGTTCGTG | -0.0686 |
| AGCTATCG | -0.109 |
| CGTGTTGA | -0.0106 |
| CTTAACGA | 0.0835 |
| CGTAGTGC | -0.0489 |
| CGAGAACA | 0.0107 |
| GATATGCC | -0.106 |
| CAGATAGA | -0.0383 |
| CCGAGCAA | -0.13 |
| CCGCACCA | -0.00985 |

| Sequence | PBM E-score |
| --- | --- |
| CCGTGGTC | -0.277 |
| GGAAGCCA | -0.344 |
| CCGGGAGA | 0.00614 |
| GTCTTAAC | -0.0384 |
| CAATTTAC | 0.0999 |
| CCCCAGTA | -0.209 |
| CCGAAACG | 0.0484 |
| ATAGGCTC | -0.097 |
| CCAAGAGC | -0.25 |
| GCCCACGC | -0.22 |
| ACGGGTGA | -0.201 |
| CGTCTTCA | -0.0568 |
| AAATGTAC | 0.155 |
| ACGAGTCA | -0.117 |
| CATAATTC | -0.00123 |
| AGTGATCC | -0.091 |
| TAAACTAA | 0.271 |
| CGAAGAAA | 0.156 |
| AAATTCCG | 0.309 |
| TGCCGGAA | 0.208 |
| GATCCACA | -0.016 |
| GCTGTTTA | 0.235 |
| TCACACCA | 0.0909 |
| ACACTATC | 0.11 |
| GACGACTA | -0.0491 |

| Sequence | PBM E-score |
| --- | --- |
| AGCCGGTC | -0.263 |
| CCTCTCCA | -0.228 |
| CAGAATGC | -0.0455 |
| ACTTGGGG | -0.19 |
| GCAACTGC | 0.0843 |
| CCAGAGAA | 0.0385 |
| AATGCCCA | -0.195 |
| GCCCATTA | -0.069 |
| ATCTCGGC | 0.0213 |
| ACAATAAG | 0.101 |
| GACAAACC | 0.00073 |
| CAAAAAAC | 0.146 |
| TACAGAGA | -0.0917 |
| CGTTCCAG | 0.00365 |
| CTTCTTGC | 0.0703 |
| ACGCCCCA | -0.0884 |
| ACACTGGC | -0.159 |
| CGCCAGCC | -0.205 |
| GGGAAGCA | -0.177 |
| CGGCGGAC | -0.152 |
| AGTATAGA | 0.111 |
| CCTTCTAC | -0.306 |
| AAGACAAT | 0.0281 |
| AATGTACG | -0.026 |
| ACAGTTCC | 0.00752 |

| Sequence | PBM E-score |
| --- | --- |
| CGCGGCCG | -0.281 |
| GTGCTTCA | 0.114 |
| CCTTGTAG | -0.266 |
| ATTCGGAG | 0.0644 |
| GGGCCCGA | -0.248 |
| CATAATGA | 0.121 |
| ATTGTGCA | 0.147 |
| CTCTCAAG | 0.0738 |
| GAAGTCAC | -0.0913 |
| AGCTCTTC | 0.0781 |
| CTCCCCCC | -0.316 |
| TATTTACA | 0.21 |
| ATCGACTG | 0.0355 |
| CAGCAACA | 0.235 |
| CCGGGCAC | -0.202 |
| AGGCACCC | -0.36 |
| ATCAATCG | 0.206 |
| CGATGGTC | -0.118 |
| CAAGAGTG | -0.0494 |
| AGGTGATA | -0.0022 |
| AGCTTAGA | -0.0294 |
| CGTCAACA | -0.207 |
| AGCTTACT | 0.0872 |
| TACGAAGA | 0.00239 |
| ACATATTG | 0.193 |

| Sequence | PBM E-score |
| --- | --- |
| AAGGCAGC | 0.00267 |
| CCAGAAAG | 0.171 |
| CACCCGGG | -0.243 |
| CCTGTCCG | -0.325 |
| CGGGAGCC | -0.293 |
| GTGCAAAC | -0.115 |
| GGAAGGCC | -0.269 |
| CATATGCA | 0.0648 |
| CCTGCTTC | -0.223 |
| GTGTAGCA | -0.134 |
| ACCCAAAG | -0.0587 |
| ATGGTCTG | 0 |
| CATTCGAA | 0.018 |
| ATTCGTTG | 0.0411 |
| GATGTAAC | 0.0438 |
| GATGGGAC | -0.188 |
| AAACGGGC | -0.145 |
| TCACTCAA | 0.125 |
| AAGTATGC | -0.00097 |
| ATATTTCG | 0.269 |
| GCTTACCC | -0.149 |
| GCTTAATA | 0.0557 |
